The other results are listed elsewhere or left out. Repeats are few or missing, and single values can be far off.
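Also: cell number obtained by counting DAPI-stained nuclei in high-throughput microscope images with image analysis software, screen run in 1,536-well plates.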

The experiment has as its system UACC62. Put plainly: cell count relative to DMSO control; melanoma cells; higher = more viable cells. Particulars: library dose: low library concentration; 72 h.
`Cc1cc(Nc2cc(N3CCN(C)CC3)nc(Sc3ccc(NC(=O)C4CC4)cc3)n2)n[nH]1` [Tozasertib] + O=C(Oc1ccc([N+](=O)[O-])cc1)N1CCC(C(O)(c2ccc3c(c2)OCO3)c2ccc3c(c2)OCO3)CC1 [JZL184] (first compound 0.006 µM, partner dose 1 µM) displayed a cell count of 84.2%. Take `Oc1cc(-c2nc(-c3ccccc3)[nH]c2-c2ccncc2)ccc1Cl` + C/C(O)=C(\C#N)C(=O)Nc1cc(Br)ccc1Br [LFM-A13] (first compound 0.2 µM, partner dose 2 µM): the cell count is 57.9%.

For the compound `O=C(O)C(=O)Nc1sc2c(c1C(=O)O)CCNC2` + O=C(Oc1ccc([N+](=O)[O-])cc1)N1CCC(C(O)(c2ccc3c(c2)OCO3)c2ccc3c(c2)OCO3)CC1 [JZL184] (first compound 1.66667 µM, partner dose 1 µM), the cell count is 100%. For `C#Cc1cccc(Nc2ncnc3cc(OCCOC)c(OCCOC)cc23)c1` [erlotinib] + C[As](C)SC[C@H](NC(=O)CC[C@H](N)C(=O)O)C(=O)NCC(=O)O [Darinaparsin] (first compound 0.8 µM, partner dose 0.4 µM) the value was 84.6%; for `Clc1ccc(Nc2nnc(Cc3ccncc3)c3ccccc23)cc1` [vatalanib] + O=C(Oc1ccc([N+](=O)[O-])cc1)N1CCC(C(O)(c2ccc3c(c2)OCO3)c2ccc3c(c2)OCO3)CC1 [JZL184] (first compound 2 µM, partner dose 1 µM), 87.8%; for `COc1cc2ncnc(Nc3ccc(Oc4ccccc4)cc3)c2cc1OC` + O=C(Oc1ccc([N+](=O)[O-])cc1)N1CCC(C(O)(c2ccc3c(c2)OCO3)c2ccc3c(c2)OCO3)CC1 [JZL184] (first compound 2 µM, partner dose 1 µM), 94.3%. In turn, `Nc1ccn([C@@H]2O[C@H](CO)[C@@H](O)C2(F)F)c(=O)n1` [gemcitabine] + C[As](C)SC[C@H](NC(=O)CC[C@H](N)C(=O)O)C(=O)NCC(=O)O [Darinaparsin] (first compound 0.0004 µM, partner dose 0.4 µM) gave a cell count of 80.8%. To `CC(C)C[C@H](NC(=O)[C@H](Cc1ccccc1)NC(=O)c1cnccn1)B(O)O` [Bortezomib] + O=C(Oc1ccc([N+](=O)[O-])cc1)N1CCC(C(O)(c2ccc3c(c2)OCO3)c2ccc3c(c2)OCO3)CC1 [JZL184] (first compound 0.001 µM, partner dose 1 µM) belongs 60.3%. As to `c1cc(-c2cnn3cc(-c4ccc(OCCN5CCCCC5)cc4)cnc23)ccn1` [Dorsomorphin] + O=C(Oc1ccc([N+](=O)[O-])cc1)N1CCC(C(O)(c2ccc3c(c2)OCO3)c2ccc3c(c2)OCO3)CC1 [JZL184] (first compound 0.4 µM, partner dose 1 µM), the cell count is 98.1%. In turn, `Oc1cc(-c2nc(-c3ccccc3)[nH]c2-c2ccncc2)ccc1Cl` + O=C(Oc1ccc([N+](=O)[O-])cc1)N1CCC(C(O)(c2ccc3c(c2)OCO3)c2ccc3c(c2)OCO3)CC1 [JZL184] (first compound 0.2 µM, partner dose 1 µM) registered a cell count of 57.9%. To `Nc1ccn([C@@H]2O[C@H](CO)[C@@H](O)C2(F)F)c(=O)n1` [gemcitabine] + C/C(O)=C(\C#N)C(=O)Nc1cc(Br)ccc1Br [LFM-A13] (first compound 0.0004 µM, partner dose 2 µM) belongs 88.4%; to `CC(C)C[C@H](NC(=O)[C@H](Cc1ccccc1)NC(=O)c1cnccn1)B(O)O` [Bortezomib] + C/C(O)=C(\C#N)C(=O)Nc1cc(Br)ccc1Br [LFM-A13] (first compound 0.001 µM, partner dose 2 µM), 74.7%. To `CO[C@H]1C[C@@H]2CC[C@@H](C)[C@@](O)(O2)C(=O)C(=O)N2CCCC[C@H]2C(=O)O[C@H]([C@H](C)C[C@@H]2CC[C@@H](OCCO)[C@H](OC)C2)CC(=O)[C@H](C)/C=C(\C)[C@@H](O)[C@@H](OC)C(=O)[C@H](C)C[C@H](C)/C=C/C=C/C=C/1C` [everolimus] + Cc1cc(SCc2sc(-c3ccc(C(F)(F)F)c(F)c3)nc2C)ccc1OCC(=O)O [GW0742] (first compound 0.02 µM, partner dose 2 µM) belongs 113%; to `Nc1ccn([C@@H]2O[C@H](CO)[C@@H](O)C2(F)F)c(=O)n1` [gemcitabine] + O=C(Oc1ccc([N+](=O)[O-])cc1)N1CCC(C(O)(c2ccc3c(c2)OCO3)c2ccc3c(c2)OCO3)CC1 [JZL184] (first compound 0.0004 µM, partner dose 1 µM), 75.3%. As to `Cc1nc(Nc2ncc(C(=O)Nc3c(C)cccc3Cl)s2)cc(N2CCN(CCO)CC2)n1` [dasatanib] + Cc1cc(SCc2sc(-c3ccc(C(F)(F)F)c(F)c3)nc2C)ccc1OCC(=O)O [GW0742] (first compound 0.004 µM, partner dose 2 µM), the cell count came to 90.7%. For `COCC[n+]1c2c(n(Cc3cnccn3)c1C)C(=O)c1ccccc1C2=O` + Cc1cc(SCc2sc(-c3ccc(C(F)(F)F)c(F)c3)nc2C)ccc1OCC(=O)O [GW0742] (first compound 0.0004 µM, partner dose 2 µM) the value was 91%; for `Cc1cc(Nc2cc(N3CCN(C)CC3)nc(Sc3ccc(NC(=O)C4CC4)cc3)n2)n[nH]1` [Tozasertib] + C/C(O)=C(\C#N)C(=O)Nc1cc(Br)ccc1Br [LFM-A13] (first compound 0.006 µM, partner dose 2 µM), 79.1%. On to `Cc1cc(Nc2cc(N3CCN(C)CC3)nc(Sc3ccc(NC(=O)C4CC4)cc3)n2)n[nH]1` [Tozasertib] + C[As](C)SC[C@H](NC(=O)CC[C@H](N)C(=O)O)C(=O)NCC(=O)O [Darinaparsin] (first compound 0.006 µM, partner dose 0.4 µM), for which the cell count stood at 82.1%.

The compound `COc1ccc(COc2ccc(Cc3cnc(N)nc3N)cc2OC)cc1` + C/C(O)=C(\C#N)C(=O)Nc1cc(Br)ccc1Br [LFM-A13] (first compound 1 µM, partner dose 2 µM) registered a cell count of 111%.

As for `O=C(O)c1ccc2c(c1)nc(Nc1cccc(Cl)c1)c1ccncc12` + O=C(Oc1ccc([N+](=O)[O-])cc1)N1CCC(C(O)(c2ccc3c(c2)OCO3)c2ccc3c(c2)OCO3)CC1 [JZL184] (first compound 0.4 µM, partner dose 1 µM), the cell count was found to be 89%. `COc1ccc(COc2ccc(Cc3cnc(N)nc3N)cc2OC)cc1` + Cc1cc(SCc2sc(-c3ccc(C(F)(F)F)c(F)c3)nc2C)ccc1OCC(=O)O [GW0742] (first compound 1 µM, partner dose 2 µM) returned a cell count of 95.6%.

As to `Clc1ccc(Nc2nnc(Cc3ccncc3)c3ccccc23)cc1` [vatalanib] + C[As](C)SC[C@H](NC(=O)CC[C@H](N)C(=O)O)C(=O)NCC(=O)O [Darinaparsin] (first compound 2 µM, partner dose 0.4 µM), the cell count turned out to be 86.2%.

`CC(C)C[C@H](NC(=O)[C@H](Cc1ccccc1)NC(=O)c1cnccn1)B(O)O` [Bortezomib] + N.N.[Cl][Pt][Cl] [cisplatin] (first compound 0.001 µM, partner dose 1.6 µM) had a cell count of 70.2%.
